The target of assay [1] is Biotinylated Mad1:C-Mad2 complex (UniProt Q9Y6D9 1-718; Q13257). Description: cell-based or functional assay.
The target of assay [2] is T1, Cdc20:C-Mad2 complex on the surface (UniProt Q12834 111-138; Q13257, biotin | Alexa 488 C5 maleimide, covalent label (residue not stated)).
T1 construct: Cdc20, residues 111-138; as m6; as m4; it is not separately purified; source: formed in the flow chamber from surface-held synthetic biotin-Cdc20^111-138 and Alexa-Mad2^wt
Description: real-time confocal fluorescence in a flow chamber, signal in solution; same chamber with surface-held biotin-Cdc20 111-138; loss of Alexa-Mad2 fluorescence from solution followed; parameters of the curves laid over the data, [Cdc20T] = 0.9 uM. Conditions: both partners purified.

Assay [3] has as its target T2, synthetic biotin-Cdc20^111-138 (UniProt Q12834 111-138, biotin).
T2 construct: Cdc20, residues 111-138; Held on the neutravidin-coated surface of the flow chamber through its biotin; also called biotinylated Cdc20 peptide; biotin-Cdc20 peptide^111-138; source: synthetic peptide
T2 peptide (looked up): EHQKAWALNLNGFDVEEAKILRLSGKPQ
The description is as above. Conditions: both partners purified.

For assay [4], the target named is T2, synthetic biotin-Cdc20^111-138. Description: real-time confocal fluorescence on a surface in a flow chamber; biotin-Cdc20 111-138 (~1 uM) held on a neutravidin-coated chamber surface; Alexa-488-Mad2 injected at 1-8 uM in PBS; fluorescence on the surface followed; constants from a global fit of rate equations. To be noted: both partners purified.

One may read the Kd as the concentration at which binding is half-saturated. The term kon denotes a measure of how fast the partners come together.

Sequence of UniProt Q9Y6D9 (Q9Y6D9 whole entry, chain 1 of 2): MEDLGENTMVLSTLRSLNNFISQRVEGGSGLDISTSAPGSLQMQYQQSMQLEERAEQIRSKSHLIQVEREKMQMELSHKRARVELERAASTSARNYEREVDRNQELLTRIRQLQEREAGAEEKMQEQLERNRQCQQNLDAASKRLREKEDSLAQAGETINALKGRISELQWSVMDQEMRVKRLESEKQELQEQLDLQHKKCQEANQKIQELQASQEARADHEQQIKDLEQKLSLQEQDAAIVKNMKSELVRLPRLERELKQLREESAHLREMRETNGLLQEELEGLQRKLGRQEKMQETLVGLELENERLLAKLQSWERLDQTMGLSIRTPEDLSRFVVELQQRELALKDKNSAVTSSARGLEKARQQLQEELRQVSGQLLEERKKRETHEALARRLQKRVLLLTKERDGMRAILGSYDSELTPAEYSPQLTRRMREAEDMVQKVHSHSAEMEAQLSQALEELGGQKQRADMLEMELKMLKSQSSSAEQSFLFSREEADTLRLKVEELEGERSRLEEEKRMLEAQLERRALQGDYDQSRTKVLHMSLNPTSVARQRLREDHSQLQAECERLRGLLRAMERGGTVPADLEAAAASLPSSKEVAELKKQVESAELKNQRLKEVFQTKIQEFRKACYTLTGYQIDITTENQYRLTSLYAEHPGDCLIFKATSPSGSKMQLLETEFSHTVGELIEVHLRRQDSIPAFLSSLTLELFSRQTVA
Sequence of UniProt Q9Y6D9 (Q13257 whole entry, chain 2 of 2, further chain): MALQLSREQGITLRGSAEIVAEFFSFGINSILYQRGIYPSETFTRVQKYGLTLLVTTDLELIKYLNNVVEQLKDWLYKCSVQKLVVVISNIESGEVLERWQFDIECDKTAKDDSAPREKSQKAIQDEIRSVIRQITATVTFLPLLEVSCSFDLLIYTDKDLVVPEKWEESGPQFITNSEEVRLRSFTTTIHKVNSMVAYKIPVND

B1: Alexa Fluor 488-labelled Mad2^wt (natural protein)
chain: not shown
modifications: Alexa 488 C5 maleimide, covalent label (residue not stated)
notes: Mad2, wild type, full length; monomeric O-Mad2 after labelling; Labelled form of m1; also called Alexa-Mad2^wt; Alexa-488-Mad2^wt; source: purified as described [14], labelled with Alexa 488 C5 maleimide, separated from free dye on Superdex-75
For B1, the “rate of accumulation of 2 uM Alexa-Mad2^wt on a surface with ~1 uM Cdc20 111-138 and interspersed 0.25 uM Mad1:C-Mad2, against the surface without Mad1:C-Mad2” value in assay [1] came out at 3 fold. For the same molecule, in assay [2], the Kd was 2450 nM and the kon was 700000 M⁻¹ s⁻¹. For the same molecule, the “k cat,on (catalysed association, reaction 5)” value in assay [3] amounted to 1750 M⁻¹ s⁻¹. Moreover, the “k cat,on (catalysed association, reaction 5)” value in assay [4] amounted to 3000 M⁻¹ s⁻¹.

These data come from PMC2621267, “The Influence of Catalysis on Mad2 Activation Dynamics” (PLoS Biology, 2009).
